Measured values as given in patent US11788060B2, “Small molecule compound composition that efficiently induces differentiation of human pluripotent stem cells into myocardial cells” (Shanghai Institute of Nutrition and Health, Chinese Academy …, priority 2016, dated 2023).

Test system: H9-cTnT-eGFP human embryonic stem cell line

Structure (SMILES)	differentiation rate of cardiomyocytes (GFP-positive cells) (primary screening, cytokine-free monolayer, H9 cell line (H9-cTnT-eGFP))	proportion of cardiomyocytes (rapamycin (10 nM) added at initial stage of cardiac differentiation (day -3 to day 1) with CHIR, read on 30th day)
Cc1c[nH]c(-c2cnc(NCCNc3ccc(C#N)cn3)nc2-c2ccc(Cl)cc2Cl)n1 [CHIR99021]	about 15%	
CO[C@H]1C[C@@H]2CC[C@@H](C)[C@@](O)(O2)C(=O)C(=O)N2CCCC[C@H]2C(=O)O[C@H]([C@H](C)C[C@@H]2CC[C@@H](O)[C@H](OC)C2)CC(=O)[C@H](C)/C=C(\C)[C@@H](O)[C@@H](OC)C(=O)[C@H](C)C[C@H](C)/C=C/C=C/C=C/1C [Rapamycin]		93.5±2.1%
